Data as given in PubChem BioAssay AID624417 (National Center for Advancing Translational Sciences (NCATS), 2012).
The whole screen tested about 410,000 compounds, of which about 6,400 (1.6%) were called active. The inconclusive results got no clear call from the source; some entries with a clear call stand among them for comparison. Calls come from the whole dose curve; as a rule, active = well fitted inhibition curve with a large enough effect; inconclusive = small, poorly fitted or top-dose-only effect; inactive = no such curve, though single readings can be large or run the other way. A potency beside an inconclusive call is a rough fit, not a confirmed value.

target: Glucagon-like peptide 1 receptor (Homo sapiens) (UniProt P43220); assay: qHTS of GLP-1 Receptor Inverse Agonists (Inhibition Mode); conditions: HEK293 GLP-1R CRE-luciferase, luminescence, 24 h, GLP-1R form is constitutively active; activity change, negative = inhibition: at 38.3 µM (top of the series) unless noted; note: nearly all actives have a fitted effect of over 55% in size
Sequence of UniProt P43220 (P43220 whole entry, looked up): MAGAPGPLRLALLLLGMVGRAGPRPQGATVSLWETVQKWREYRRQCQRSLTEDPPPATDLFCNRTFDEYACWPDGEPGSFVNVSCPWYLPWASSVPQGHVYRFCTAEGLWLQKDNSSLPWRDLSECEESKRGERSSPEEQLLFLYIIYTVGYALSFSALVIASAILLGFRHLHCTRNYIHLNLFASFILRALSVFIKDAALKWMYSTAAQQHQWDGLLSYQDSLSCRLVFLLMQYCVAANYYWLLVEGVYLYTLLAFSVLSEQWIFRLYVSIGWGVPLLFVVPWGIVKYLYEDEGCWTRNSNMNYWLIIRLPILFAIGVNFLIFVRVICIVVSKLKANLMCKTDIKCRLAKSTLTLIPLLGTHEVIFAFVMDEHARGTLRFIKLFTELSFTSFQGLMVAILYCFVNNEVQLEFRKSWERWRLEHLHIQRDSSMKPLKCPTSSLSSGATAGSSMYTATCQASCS
Outline: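 Luminescence readout: a drop in cAMP-driven luciferase signal flags inverse agonism at a constitutively active GLP-1R stably expressed in HEK293. Compound exposure lasted 24 hr at 37 deg C, 5% CO2.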
% is set by controls: 0 for no effect and ±100 for the full control effect; potency is the fitted concentration of half-maximal effect; tags give direction and shape of the fitted curve.

Potency, active:
CCC1C/C(=C\c2cccnc2)C(=O)/C(=C/c2cccnc2)C1 (stereo not given) 3.55 µM
Cc1cc(Nc2ccc(Cl)cc2)nc(NCc2ccccc2)n1 11.2 µM
CCc1ccc(CN2CCc3nc(N4CCN(CC)CC4)ncc3C2)cc1 5.01 µM
CCCCCCCCCCCCCCCC[N+](C)(C)CCl 3.55 µM
COc1cc(CN2CCCC(C(=O)c3ccc4c5c(cccc35)CC4)C2)cc(OC)c1O (stereo not given) 11.2 µM

Potency, inconclusive:
COc1ccc(-c2nc(CS(=O)CC(=O)NCc3ccc(Cl)cc3)c(C)o2)cc1 (stereo not given) 14.1 µM [inhibitor, single point]
COc1ccc(C(=O)COC(=O)C(Cc2c[nH]c3ccccc23)NC(=O)c2ccc(C(C)(C)C)cc2)cc1 (stereo not given) 28.2 µM [inhibitor, single point]
C=CCN(c1nc(C)c(Br)c(OC)n1)S(=O)(=O)c1ccc(C)cc1 11.2 µM [inhibitor, partial curve, poor fit]
CN(CC(=O)Nc1cccc(F)c1)C(=O)c1ccc(N2CCCCC2)c([N+](=O)[O-])c1 12.6 µM [inhibitor, single point]
O=C(CSCc1cnn(-c2ccccc2)c1-n1cccc1)NCc1ccccn1 5.01 µM [inhibitor, partial curve, poor fit]
COc1cc2c(cc1NC(=S)Nc1cccc3ccccc13)oc1ccccc12 28.2 µM [inhibitor, single point]
CN(CC(=O)NNC(=O)CNC(=O)c1cccs1)S(=O)(=O)c1ccc(Cl)cc1 28.2 µM [inhibitor, single point]
CC1=CCC(C(=O)O)C(C(=O)Nc2ccc(-c3nc4ccc(C)cc4s3)cc2)C1 (stereo not given) 28.2 µM [inhibitor, single point]
COC(=O)c1ccc(Oc2cc(C)nc(NCc3ccccc3)n2)cc1 0.794 µM [inhibitor, full curve, poor fit]
Cc1ccc2c(c1)nnn2C1CCN(CC(=O)Nc2ccc(F)cc2)CC1 14.1 µM [inhibitor, single point]
CCCN(CCC)S(=O)(=O)c1ccc(C(=O)Nc2sc3c(c2C(=O)OC)CCN(CC)C3)cc1 12.6 µM [inhibitor, partial curve, poor fit]
Cc1ccc(CO/N=C\Cc2snc(Sc3ncc(C(F)(F)F)cc3Cl)c2C#N)cc1 10 µM [inhibitor, single point]
CCCCN(C)C(=O)c1ccc(Nc2nc(C(N)CCc3ccccc3)cs2)nc1 (stereo not given) 28.2 µM [inhibitor, single point]
CN(C)CCC(=O)N1c2ccccc2Sc2ccc(C(F)(F)F)cc21 10 µM [inhibitor, single point]
Cc1ccc(CCNC(=O)c2ccc3c(c2)N(Cc2cccc(Cl)c2)C(=O)c2ccccc2S3(=O)=O)cc1 10 µM [inhibitor, partial curve]
CN=c1scc(C)n1/N=C/c1ccc2c(c1)OCO2 7.08 µM [inhibitor, partial curve, poor fit]
O=C(NCC(c1ccco1)N1CCc2ccccc21)c1ccccc1 (stereo not given) 11.2 µM [inhibitor, partial curve, poor fit]
CC1Cc2ccccc2N1Cc1nc2cc(C(F)(F)F)ccc2c(=O)[nH]1 (stereo not given) 12.6 µM [inhibitor, partial curve, poor fit]
CCN(CC(=O)Nc1cc(Cl)ccc1Cl)C(=O)c1ccc(-n2cccn2)cc1 10 µM [inhibitor, single point]
CCCS(=O)(=O)N1CCCC(C(=O)NCCN(CC)c2ccccc2)C1 (stereo not given) 31.6 µM [inhibitor, single point]
CCOc1ccc(C(=O)NC(=S)Nc2ccccc2N2CCC(C)CC2)cc1[N+](=O)[O-] 8.91 µM [inhibitor, partial curve, poor fit]
CC1CCN(C(=O)COC(=O)c2ccc3c(c2)OCO3)CC1 28.2 µM [inhibitor, single point]
OCCCNc1nc(-c2ccccc2)nc2c1oc1ccccc12 11.2 µM [inhibitor, partial curve, poor fit]
COc1ccc(O)c(-c2cc(-c3cccs3)[nH]n2)c1 14.1 µM [inhibitor, single point]
CCc1cccc(CN2CCC(CNC(=O)Nc3ccc(Cl)cc3)CC2)c1 11.2 µM [inhibitor, partial curve, poor fit]
CCN(C(=O)CSc1nc(-c2ccc(C(C)C)cc2)no1)c1cccc(C)c1 11.2 µM [inhibitor, single point]
CCOC(=O)C1=C(N)Oc2ccc3ccccc3c2C1c1ccc(O)cc1 (stereo not given) 28.2 µM [inhibitor, single point]
Cc1ccc(NC(=O)Cn2ncc(Cl)c(Cl)c2=O)cc1S(=O)(=O)N1CCCCC1 28.2 µM [inhibitor, single point]
COc1ccc(OC)c(NS(=O)(=O)c2ccc(-c3cc(C)no3)s2)c1 1.12 µM [inhibitor, full curve]
Cc1cccc(C(=O)Nc2nnc(S(=O)(=O)N(C)c3ccccc3C)s2)c1 10 µM [inhibitor, partial curve, poor fit]
Cc1ccc(OCCCCNC2CCCC(C)C2C)c(C)c1 (stereo not given) 31.6 µM [inhibitor, single point]
Cc1ccc(Cl)cc1NC(=S)N(Cc1ccco1)C(C)c1cccs1 (stereo not given) 22.4 µM [inhibitor, partial curve, poor fit]
Cc1ccc(NC(=O)CCN2CCN(CCO)CC2)cc1Br 10 µM [inhibitor, partial curve, poor fit]
Cc1cccc(NC(=O)C2CCCN(S(=O)(=O)c3cccs3)C2)c1C (stereo not given) 28.2 µM [inhibitor, single point]
c1coc(-c2nc3n(n2)C2(CCCCC2)[C@@H]2CCCC[C@@H]2N3)c1 11.2 µM [inhibitor, partial curve, poor fit]
Cc1c(Cl)cccc1NC(=S)NCCC(c1ccccc1)c1ccccc1 7.94 µM [inhibitor, partial curve, poor fit]
Cc1oc2ncnc(N3CCCCC3)c2c1C(=O)N1CCN(c2cccc(Cl)c2)CC1 28.2 µM [inhibitor, single point]
CCOC(=O)N1CCN(CC(=O)n2c(C)c(C)c3ccccc32)CC1 1.78 µM [inhibitor, full curve]
CCOc1ccc(Br)cc1S(=O)(=O)Nc1ccc(Cl)c(S(=O)(=O)N(CC)c2ccccc2)c1 20 µM [inhibitor, single point]
CC(C)(C)c1ccc(C(=S)N2CCN(c3ccccc3)CC2)cc1 8.91 µM [inhibitor, partial curve, poor fit]
CCOc1ccc(CN2C(=O)c3ccccc3Sc3ccc(C(=O)O)cc32)cc1 7.94 µM [inhibitor, partial curve, poor fit]
Cc1cnc(NC(=O)c2cc3ccccc3o2)s1 12.6 µM [inhibitor, single point]
CC(C)(C)c1ccc(C(=O)N2CCC2(C)C(=O)Nc2cccc(C#N)c2)cc1 (stereo not given) 7.94 µM [inhibitor, partial curve, poor fit]
CCCCn1c(N)c(S(=O)(=O)c2ccc(C)cc2)c2nc3ccccc3nc21 7.08 µM [inhibitor, partial curve, poor fit]
Cc1ccc2c(c1)c(=O)c(C(=O)c1ccc3c(c1)OCO3)cn2Cc1ccc(Cl)cc1 31.6 µM [inhibitor, partial curve, poor fit]

Activity change, negative = inhibition, inactive:
Cn1ncc(Cl)c1C(=O)N1CCN(c2ccccc2)CC1 10.4%
COc1ccc(OC)c(C2C(C(C)=O)=C(O)C(=O)N2CCC(=O)O)c1 (stereo not given) 2.84%
COc1ccc(CCNC(=O)C(=O)NCC(c2cccs2)S(=O)(=O)c2ccc(C)cc2)cc1 (stereo not given) 16.9%
COc1ccc(-c2oc3ccc(N4CCOCC4)cc3c2C#CCO)cc1 -2.23%
Cc1cn2c(=O)cc(COC(=O)c3cccc(NC(=O)c4ccccc4C)c3)nc2s1 3.88%
COc1ccc(-n2nc(C)c3c(C(F)(F)F)cc(-c4cccnc4)nc32)cc1 4.15%
CC(C)CN(C(=O)COc1ccc2ccc(=O)oc2c1)C1CCS(=O)(=O)C1 (stereo not given) 36.1%
Cc1cccc(NC2=C(Cl)C(=O)OC2OC(=O)c2ccco2)c1 (stereo not given) -5.45%
c1ccc(CSc2nc3ncccc3[nH]2)cc1 19.3%
Cc1cc(C)cc(OC(C)C(=O)Nc2c(C(=O)c3ccccc3)oc3ccccc23)c1 (stereo not given) 0.132%
O=C(O)C1CC(=O)N(c2ccc(OCc3ccccc3Cl)cc2)C1 (stereo not given) -3.92%
CC(C)c1cnc2c(c1SCC(=O)Nc1cccc(F)c1)c(=O)n(C)c(=O)n2C 5.11%
COC(=O)CN1CCN(C(c2ccccc2)c2ccccc2)CC1 -2.57%
COc1cc(/C=N/NC(=O)c2cccc(S(=O)(=O)N3CCCC3)c2)ccc1O 11.9%
COc1ccc(C(=O)Cc2cc3ccccc3oc2=O)cc1 10.5%
